Source: the supplement of paper PMC10126150
Sequences with one replicate were seen in a single cluster, so their values are uncertain.

Tested on: ATP
Assay: switch fluorescence ratio, 500 uM ATP over buffer (Cy3 cluster intensity, sum of 5 cycles each) (fold (ratio)); higher = stronger signal-on switching upon ATP binding; sequences stand for … in TCGTCGGCAGCGTCAGATGTGTATAAGAGACAGTTTTTTTTTTTTTTTTTTTTTTTTT…TC
Settings: aptamer strand: ATP DNA aptamer (quencher-CACCTGGGGGAGTATTGCGGAGGAAGG + anchor), 100 nM annealed; ATP concentration: 500 uM; one replicate
Summary of the method: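 Exposure to 500 uM ATP lasted 15 min at 22 °C before imaging, and a selection-buffer image was taken beforehand, for Cy3-labelled switching-strand clusters on a modified Illumina MiSeq flow-cell annealed to 100 nM quencher-labelled ATP aptamer. Five buffer/ATP cycles were run with NaOH stripping and re-annealing between them. The fluorescence ratio per cluster is summed target-cycle over summed buffer-cycle Cy3 intensity, averaged per switch-domain sequence. Clusters outside 100-1000 RFU were excluded.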

Sequence | switch fluorescence ratio
TGTCCAAATC | 1
AGTCCGTAC | 1.31
GTTCTGCGAT | 1.21
CCTGAGCCGT | 1.1
GGGATGCAAG | 1.04
TCAGTGGAGT | 0.979
GGGGACAAGA | 1.02
TGATGAAGAA | 1.01
TGTGTACG | 1.02
GCACCTTCCA | 2.06
TGTGGATCGT | 0.984
CGCAGGACGA | 1.05
CGTCGGTGTG | 0.993
GCCTGTTGGG | 0.993
AGCAATGCGC | 1.97
GATAGAGTTA | 0.991
GAAGTTGTT | 0.994
ATCCTCAATC | 2.03
AGCGCGCGTT | 0.994
TCTATGGGAT | 1.03
CGATAATTGG | 0.969
AGTATTGTCA | 1.03
CCTAGAAGGA | 1
GGTCTCTGTG | 0.96
GCCGGGCCCG | 1.01
CACATTGGCT | 0.962

Sequence | switch fluorescence ratio
GTCACAGATG | 1.01
GAACTACCCC | 1.19
GCAACATGAG | 0.954
TATGTGTATC | 0.959
GGCGATTAAG | 1.05
CCAAAGTTGC | 2.44
GGAGTCGAG | 0.996
GATGTGCGTT | 0.983
GAGAAGTCGG | 0.958
TGTTGTGGAA | 0.982
CTTATGATTA | 0.947
TTTAGATCTG | 1.07
GCGGCGACTG | 1
ATACGTGTTC | 0.986
CGAAATATGG | 1.04
CGGGAGATAG | 0.982
ATGCTGGCTG | 1.02
TACAAGCCGT | 1.1
CCCGGAAGTC | 1.38
CCAAGTGTTT | 1.02
GGCCAAATAG | 0.989
CCGTCAGAA | 1.24
CCCCTACGTG | 2.18
CGTTCTGTCT | 0.988
AACCGTCTCC | 2.06
GGTGCGCGTT | 1

Sequence | switch fluorescence ratio
AACCAATACG | 1.57
GGCGACACTA | 1.13
CCCTGGGGG | 1.15
AGTTGGGA | 0.992
CCTACTTTTA | 1.06
AGGAATTACA | 1.02
CGGTCACGGA | 0.977
CGGAGGAGGC | 0.898
TCCTCACAG | 1.48
GTACAAACGG | 1.19
ACCACGATGA | 1.1
GTTATTAGCA | 1.06
GATTCCTGAA | 1.06
CCCCGGCGCT | 1.4
TCTGACAGGG | 1.01
TAGATTTG | 0.98
GAAGGAAGGA | 1
TGACTCGTGC | 1.05
TTGTCATCGG | 0.978
TCGTAAAAT | 1.03
GGGACACCGA | 1.05
TACTCGGTGC | 1.03
GTAATGTTGC | 1.04
CCCGGTATGA | 1.05
TTGTAGTT | 0.965
GGGCTTGCGA | 1.04

Sequence | switch fluorescence ratio
AATTATTTAA | 1.03
AGGGTACCT | 1.19
CGCCGGCAAG | 1.17
CGGGACCCTT | 1.04
ACTATACATT | 1.24
ACAACTTTCG | 1.03
AGTCAGGAGA | 1.01
TATTAGATA | 0.98
AGTATCATCG | 1.01
AGGGGTCG | 1.02
GCGGATGCC | 0.98
TAGCTTCGAG | 1.04
AGTGTTAGGC | 1.02
TAGGCGTTAA | 0.963
AAACAGGTAC | 1.11
AGCCCTGTGG | 1.02
AAATTCACTG | 1.01
GTGGCTAGTA | 1.07
ATTGTGACGT | 1.04
TAAAGATGTA | 1.07
GCATGTGTCC | 1.02
CGAAGTGGCT | 0.956
CACGGGCAGT | 1.07
GATTAATGTA | 1
TCACGTGAGA | 1.04
GCGTAACGAG | 1.06

Sequence | switch fluorescence ratio
CGTTGAGGGG | 0.909
TCGATATCCT | 1.06
GCATTGGCGC | 0.985
GAGGATTTTA | 0.983
AACGCTCCTC | 1.32
TGACACATTT | 0.985
CTGTGCGGGT | 0.993
GGCCGGGGCA | 0.96
CTTGTAAGTA | 0.948
CGAGTTAGTC | 1
CAAGTGTTGC | 1
CAAAGTCCCG | 0.997
TTGGAAACGC | 1.04
AAGCGTTTGC | 1.04
GCTAAAGCCG | 1.02
CCTTCAAACC | 1.25
GCGTAGAGTG | 1.01
ATTTTTGCTC | 1.04
CTACCGTCTG | 1.01
TGACAGCGCG | 1
GTATGATCTC | 0.988
TTCGCTGTGC | 1.61
GAAGCAGCTG | 1.04
ATATTTGTCG | 1.01
CACCTGCTTT | 1.01
GCTGGACAAT | 1.02

Sequence | switch fluorescence ratio
GGTCATAAGG | 1.01
TTTAAATTA | 1
TGGGAAGATG | 0.97
AGGACGCGGG | 0.993
ATTATCAAGC | 1.03
CGTCTAGTCT | 1.09
GGTAAACACG | 1.07
CAGGCATCAC | 1.22
AGGGCATGTG | 1.01
CCCTGTGTTT | 1.04
AACTAAAGAA | 1.01
TGGGCGATT | 1.01
TATACGTAGG | 1.04
CAAACTAATT | 0.96
CTCGGGAGAT | 0.985
AACGACGTTG | 1.01
CAGTAGTTTG | 0.953
AGCTTAATGG | 1.05
ATCTGCGTTG | 1.02
TTAACATGGC | 1.06
ATATTGTAG | 0.989
AACGGGGGTT | 1.35
TACTGATTAT | 1.2
CTCTCTTAAC | 1.06
GTGGTGCCGA | 1.03
GGACGTTATG | 0.963

Sequence | switch fluorescence ratio
GTGATAATAG | 1.03
TCTCGCTCCT | 1.11
ACGGTTTGGG | 1.01
TAAAGACAAC | 0.975
GGTCCTTGTA | 0.943
TTTGAAGGAG | 0.989
GTTGCTAGGG | 0.987
ATGGGTTGCA | 0.992
CATGGGTAAA | 0.997
AGTCTCAGG | 1.04
CCTTGTGCCC | 0.964
AGGCCGAGCC | 1.02
TGGGTTGCT | 0.974
AGCAAAGTCG | 0.946
TCTCGTGCGG | 1.02
ACGAGTAGAT | 1.05
TGTGAACTTA | 0.991
ACAGCCTTGA | 1
TTTGGGAGAG | 1.5
TACCTGCTTA | 1.02
ATAAGACCAT | 1.03
ACTTCGTATC | 1.24
GGCTAACATG | 1.04
GTTACGGGTA | 1.01
AGGACATGAC | 1.04
ATAGCTCGCA | 1.01

Sequence | switch fluorescence ratio
TGGCGCACTC | 1.41
ATGCTGTATC | 1.01
AGTCTAGATT | 0.984
CGTACTACAT | 1.07
TACAGGTCCT | 1.06
TACAACTTTT | 1.02
TTAACTATTG | 1.03
TAGGAGCACC | 1.03
ATGGTCTTGA | 1.03
ATTCCCAACG | 1.02
CGGGTCGGG | 0.956
TTCCTTTTCA | 1.05
TCAGAAAATG | 1.18
GTGTTCTTT | 0.948
CATAAGTAAG | 1.04
TTGGGGATCA | 0.956
AACCGCACT | 1.81
ATGGTGATAA | 0.979
TTACAAACCC | 1.16
